Data on 90 molecules can be found in paper PMC4336329 (PLoS ONE, 2015).

Out of some 310,000 compounds screened, about 2,200 (0.71%) showed an effect of 50% or more. The effect is printed as a negative number. The list shows a part of the results.

The assay deals with human ether-à-go-go-related gene (hERG) potassium channel (human, UniProt Q12809). As to the kind of experiment: primary screen, population patch clamp on CHO cells stably expressing hERG.
human ether-à-go-go-related gene (hERG) potassium channel, sequence (Q12809 whole entry, looked up): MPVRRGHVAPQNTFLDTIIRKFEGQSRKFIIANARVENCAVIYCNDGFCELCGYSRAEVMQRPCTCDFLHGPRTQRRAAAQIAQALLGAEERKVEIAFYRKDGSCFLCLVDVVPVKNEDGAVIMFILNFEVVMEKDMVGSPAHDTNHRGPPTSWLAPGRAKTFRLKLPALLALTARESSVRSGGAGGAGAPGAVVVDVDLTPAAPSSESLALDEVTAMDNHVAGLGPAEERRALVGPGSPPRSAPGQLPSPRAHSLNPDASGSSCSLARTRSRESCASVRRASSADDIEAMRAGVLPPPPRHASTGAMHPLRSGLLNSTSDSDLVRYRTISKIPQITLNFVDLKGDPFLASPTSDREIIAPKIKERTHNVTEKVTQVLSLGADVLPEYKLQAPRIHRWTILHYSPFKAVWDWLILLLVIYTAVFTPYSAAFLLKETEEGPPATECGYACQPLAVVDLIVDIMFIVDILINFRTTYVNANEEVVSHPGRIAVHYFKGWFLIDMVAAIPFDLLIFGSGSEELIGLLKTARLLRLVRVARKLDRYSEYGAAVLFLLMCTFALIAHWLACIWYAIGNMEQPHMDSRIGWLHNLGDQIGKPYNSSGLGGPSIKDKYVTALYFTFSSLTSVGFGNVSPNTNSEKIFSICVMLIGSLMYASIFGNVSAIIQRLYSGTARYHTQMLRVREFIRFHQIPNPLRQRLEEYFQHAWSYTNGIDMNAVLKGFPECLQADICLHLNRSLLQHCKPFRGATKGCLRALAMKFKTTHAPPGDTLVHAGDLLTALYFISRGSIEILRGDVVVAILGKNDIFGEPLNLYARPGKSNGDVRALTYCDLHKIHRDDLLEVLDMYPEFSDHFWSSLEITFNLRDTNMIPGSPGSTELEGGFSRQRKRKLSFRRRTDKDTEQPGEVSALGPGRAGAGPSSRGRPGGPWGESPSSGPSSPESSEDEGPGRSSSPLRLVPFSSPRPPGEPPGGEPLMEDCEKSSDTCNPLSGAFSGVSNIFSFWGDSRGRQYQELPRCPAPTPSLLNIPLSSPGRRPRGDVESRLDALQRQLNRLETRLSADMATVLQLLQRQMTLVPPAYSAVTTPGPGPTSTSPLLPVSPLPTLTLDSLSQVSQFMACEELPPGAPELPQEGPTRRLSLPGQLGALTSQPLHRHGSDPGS
For the molecule `COc1ccc(C(C(=O)NCc2ccccc2)N(Cc2cccs2)C(=O)c2cnccn2)cc1` (stereo not drawn), the “hERG current change (%, negative = inhibition) at 1uM” value was determined as 4.83%.
Regarding `CC1CC(C)CN(CCCNS(=O)(=O)c2ccc3c(c2)oc(=O)n3C)C1` (stereo not drawn), the “hERG current change (%, negative = inhibition) at 1uM” value is listed as -2.42%.
The value for `COC(=O)C1C(=O)C2=C(CC1C)NC(=O)CC2c1cccc(C)c1` (stereo not drawn) was -4.59%; that for `Cc1cc(C)c(Cn2c(C(=O)O)c(C=O)c3ccccc32)c(C)c1` was 2.18%; that for `S=C(NCCc1c[nH]c2ccccc12)NC1CCCC1` was 10.4%.
The figure for `Cn1cc(Br)c(-c2cccc(NC(=O)CC(C)(C)CC(=O)O)c2)n1` is 11.1%; for `O=C(NCc1ccc(F)cc1)Nc1ccc(Cl)cc1` it is 1.34%.
The value for `CC(=O)c1cc2c(=O)c3ccccc3oc2nc1C` was 7.98%.
Turning to `COc1ccc(-c2cc(CCCC(=O)NCCc3ccc(OC)cc3OC)no2)cc1`, the “hERG current change (%, negative = inhibition) at 1uM” value is reported as 7.1%.
The figure for `COc1cc(SC)ccc1C(=O)N1CCN(c2ccc(O)cc2)CC1` is 4.82%; for `Cc1noc(C)c1S(=O)(=O)N(CC(=O)N1CCc2ccccc21)c1ccc(C(C)C)cc1` it is 12.6%; for `Cc1cccc(-c2nc3ccccc3c(=O)n2NC(=S)N(C)C)c1` it is 0.804%.
The figure for `COc1ccccc1N1CCN(C(=O)c2ccc(Cn3c(=S)[nH]c4cc5c(cc4c3=O)OCO5)cc2)CC1` is 11.7%; for `CCOC(=O)c1[nH]c(C)c(C(=O)N2CCN(c3ccccc3OC)CC2)c1C` it is 9.45%; for `O=C(CN1C(=O)NC2(CCCC2)C1=O)Nc1ccc(F)c([N+](=O)[O-])c1` it is 7.95%.
The figure for `Cc1cc(=O)oc2cc(O)c(N=Nc3ccccc3)cc12` is 13.6%; for `Cc1nc2ccccc2n1/N=C/c1cccnc1` it is 3.21%; for `CCNC(=O)/C(=C/c1ccc2c(c1)OCO2)NC(=O)c1ccc(Br)cc1` it is -30.7%.
Turning to `CC1=Nc2ccc3ccccc3c2C1(C)C`, the “hERG current change (%, negative = inhibition) at 1uM” value stood at 6.85%.
The figure for `Cc1cc(C)cc(OCC(=O)NCC2CCCO2)c1` (stereo not drawn) is -4.91%; for `CC1=C/C(=C\c2ccc3c(c2)OCO3)C(=O)S1` it is 7.42%.
Regarding `CCCOc1ccccc1C(=O)N(Cc1cccs1)C1CCS(=O)(=O)C1` (stereo not drawn), the “hERG current change (%, negative = inhibition) at 1uM” value is on record as 2.85%.
For the molecule `CCN(CC)CCOC(=O)C1c2ccccc2Oc2ccccc21.Cl`, the “hERG current change (%, negative = inhibition) at 1uM” value is recorded as -0.841%.
The value for `Cc1ccc(C(=O)Nc2nc(C)c(C)s2)o1` was 4.02%.
Consider `Nc1nnc(CSCc2ccc(Cl)cc2)s1`, for which the “hERG current change (%, negative = inhibition) at 1uM” value is reported as 2.77%.
The value for `c1cc(CCN2CCCC2)ccn1` was 4.25%; that for `CCOC(=O)C(=CN(CCc1ccccc1)CC(=O)OC)C(=O)OCC` was 7.6%.
Regarding `O=C(c1ccc([N+](=O)[O-])s1)N1CCN(c2ccc(C(F)(F)F)cn2)CC1`, the “hERG current change (%, negative = inhibition) at 1uM” value was -35%.
The figure for `C=CCS(=O)(=O)c1nc2ccccc2s1` is 12.8%.
The figure for `COc1ccc(/C=N/NC(=O)c2ccc(F)cc2)cc1CN1CCc2cc(OC)c(OC)cc2C1C` (stereo not drawn) is -99.1%.
As for `COc1ccc2c(c1)c(CC(=O)OC(C)C(=O)N(C)C)c(C)n2C(=O)c1ccc(Cl)cc1` (stereo not drawn), the “hERG current change (%, negative = inhibition) at 1uM” value is on record as -1.81%.
The figure for `O=C(Nc1ccccn1)c1ccc(C(=O)c2ccccc2)cc1` is 7.17%; for `CSc1ccccc1OCc1cc(C(=O)N(C)C(C)c2nc(C)cs2)no1` (stereo not drawn) it is -23.9%; for `C(=N\Nc1nc2ccccc2[nH]1)/c1ccncc1` it is 14.2%.
The figure for `COc1cc(OC)cc(-c2nnc(SCC(=O)N(C(C)C)C(C)C)o2)c1` is 3.08%; for `CC(C)Oc1cccc(C(=O)O)c1` it is 7.04%; for `Cc1c(C)c2ccc(OCC(=O)N(C)C3CCS(=O)(=O)C3)c(C)c2oc1=O` (stereo not drawn) it is 27.6%.
In the case of `CCCCN1CCC(C#N)(Nc2ccccc2)CC1`, the “hERG current change (%, negative = inhibition) at 1uM” value stood at 9.89%.
The value for `Nn1c(SCC(=O)Nc2ccc3c(c2)OCO3)nncc1=O` was 12%; that for `CCOC(=O)Cc1c(C)nc2cc(-c3ccc(C(C)(C)C)cc3)[nH]n2c1=O` was -5.14%; that for `CCN(C(=O)COC(=O)/C=C/c1c(C)nn(-c2ccccc2)c1C)C1CCS(=O)(=O)C1` (stereo not drawn) was 6.62%.
The value for `COc1cccc(-c2nc(=S)c3c(n2Cc2ccco2)CCCC3)c1` was 8.86%; that for `CCOc1ccc(NC(=S)NC(=O)/C=C/c2ccc(OC)cc2)c([N+](=O)[O-])c1` was 8.86%.
Regarding `Cc1cc(NC(=O)CCCn2nc([N+](=O)[O-])c(Br)c2C)no1`, the “hERG current change (%, negative = inhibition) at 1uM” value was 5.68%.
The value for `NCCCS(=O)(=O)O` was 11.6%; that for `CC1=NN(c2ccccc2)C(=O)C1/C=C1\C(=O)NC(=O)N(c2cc(C)cc(C)c2)C1=O` (stereo not drawn) was 10.6%.
The value for `CCn1c(O)c(/C=N/NC(=O)c2ccncc2)c(=O)[nH]c1=S` was 19.4%.
The value for `COc1cccc(NC(=O)c2cnc(SCC(=O)NCc3ccc4c(c3)OCO4)n(C)c2=O)c1` was 12.2%; that for `CC1=NNC(=O)/C1=C\c1cn(-c2ccccc2)nc1-c1ccc(Cl)cc1` was 2.82%.
Regarding `Cc1cc(N2CCOCC2)nc2ccc(NC(=O)CCC(=O)N3CCN(c4ccccc4F)CC3)cc12`, the “hERG current change (%, negative = inhibition) at 1uM” value amounted to 15.1%.
The figure for `CC(C)OC(=O)CSc1nnc(-c2ccccn2)n1C` is 9.65%; for `CCOc1nc(Nc2ccc(OC)cc2OC)nc(OCC)n1` it is 9.98%.
The value for `Cc1cc(C)cc(CC2CC(=O)N(c3cc(C)on3)C2=O)c1` (stereo not drawn) was 12%; that for `Oc1c(C=Nc2cccnc2)sc2ccccc12` was 12.9%; that for `COc1ccc(/C=N/Nc2nc(-c3cccnc3)nc3ccccc23)cc1OC` was -5.12%.
Turning to `O=C(Cn1cc(S(=O)(=O)Cc2ccc([N+](=O)[O-])cc2)c2ccccc21)N1CCOCC1`, the “hERG current change (%, negative = inhibition) at 1uM” value is given as 14.6%.
For `Cn1nc(-c2ccccc2)nc1-c1ccccc1`, the “hERG current change (%, negative = inhibition) at 1uM” value was -0.0145%.
Take `Cc1ccc(NS(=O)(=O)c2ccccc2[N+](=O)[O-])cc1C`: the “hERG current change (%, negative = inhibition) at 1uM” value amounted to 7.05%.
Turning to `COc1cccc(NC(=O)CCNS(=O)(=O)c2ccc3c(c2)oc(=O)n3C)c1`, the “hERG current change (%, negative = inhibition) at 1uM” value is recorded as 7.98%.
The figure for `O=C(CSc1ccc(-c2cccnc2)nn1)N1CCCCC1` is 14.1%.
The figure for `CCCCN1CCCC1CNC(=O)c1cc(C#N)c2ccccc2c1OC` (stereo not drawn) is -43.1%; for `CCOC(=O)c1c(C)n(-c2ccccc2)c2ccc(O)c(CN(C)C)c12.Cl` it is 7.01%; for `O=C(O)C1CCC(=O)N(C2CC2)C1c1ccccc1` (stereo not drawn) it is 18%.
The value for `S=C(NCc1ccccc1)N1CCN(c2cccc(Cl)c2)CC1` was 4.35%; that for `CCCCN1C(=O)C2C3C=CC(C2C1=O)C1C2C(=O)N(CCCC)C(=O)C2C31` (stereo not drawn) was -10.9%.
Take `O=C(CCc1nnc2ccc(NCc3ccc(F)cc3)nn12)NC1CCCC1`: the “hERG current change (%, negative = inhibition) at 1uM” value came out at 9.56%.
The value for `CC(C)NC(=O)NC(=O)CSc1ccccc1F` was 4.81%.
The value for `Cc1ccc(Nc2cc(C(=O)NCCCN3CCOCC3)c3ccccc3n2)c(C)c1` was 4.55%; that for `COc1ccc(NC(=O)CSc2nnc(-c3cccs3)n2-c2ccccc2)cc1` was -5.84%; that for `CCn1nc(C)cc1C(=O)Sc1ccc(Cl)cc1Cl` was 11.1%.
As to `O=C1CC(c2ccccc2)c2c(O)cc(O)cc2O1` (stereo not drawn), the “hERG current change (%, negative = inhibition) at 1uM” value was 8.1%.
The value for `CC[n+]1ccc(C)c2cc(S(=O)C(F)(F)F)ccc21.Cc1ccc(S(=O)(=O)[O-])cc1` (stereo not drawn) was -2.44%; that for `O=C(OCC(=O)c1ccc[nH]1)c1ccc2ccccc2n1` was 13.1%.
The value for `Br.Cn1c(=N)n(CC(=O)c2ccc(Cl)c(Cl)c2)c2ccccc21` was -11%; that for `COCCn1c(CN2CCN(c3ccc(OC)cc3)CC2)nc2c1c(=O)n(C)c(=O)n2C` was 6.54%.
The figure for `O=C(NCc1ccco1)c1cc(-c2ccc(Cl)cc2)on1` is 26.4%; for `O=[N+]([O-])c1ccc(SCCc2cc[nH+]cc2)cc1.[Cl-]` it is -5.18%; for `CNC(=O)COC(=O)c1ccc2c(c1)S(=O)(=O)c1ccccc1C2=O` it is 11.3%.
In the case of `O=S(=O)(NCc1ccc(F)cc1)c1cccc(S(=O)(=O)N2CCOCC2)c1`, the “hERG current change (%, negative = inhibition) at 1uM” value is reported as -4.7%.
The value for `COc1cc(OC)cc(C(=O)N[C@@H](CCSC)c2nc3ccccc3[nH]2)c1` was 20.3%; that for `COc1ccc(CNC(=O)CSCc2ccccc2Cl)cc1` was 10.1%.
The value for `Cc1nc(N)sc1N=Nc1ccc(F)cc1` was -1.66%; that for `Cc1cc(Br)ccc1OCCCCN1CCC(C)CC1.O=C(O)C(=O)O` was -47.7%; that for `CCCC(C)NC(=O)c1cc(C(=O)OC)cc([N+](=O)[O-])c1` (stereo not drawn) was 7.72%.
With `CN(C)C=O.N#Cc1c(N)nc2c3c(sc(=N)c2c1N)NC(=O)CC3c1ccccc1Cl` (stereo not drawn), the “hERG current change (%, negative = inhibition) at 1uM” value was 15.1%.
As for `COC(=O)Cc1csc(NC(=O)CSc2nnc3ccccn23)n1`, the “hERG current change (%, negative = inhibition) at 1uM” value was 15.7%.
The figure for `N/C(Cc1ccc(Cl)cc1)=N\OC(=O)c1cccc2ccccc12` is 10.2%.
The figure for `O=C(NNC(=S)NC(=O)c1ccc(F)cc1)c1cccnc1` is 15.8%; for `CCOc1cc(/C=C/c2nc3cc(C)c(C)cc3s2)ccc1OCC(=O)N1CCOCC1` it is 6.46%.
The value for `COC(=O)c1ccc(C2=NOC(C)(c3sc(-c4ccccc4)nc3C)C2)cc1` (stereo not drawn) was 23.4%.
